In all, about 33,000 sequences were measured (“E-score (-0.5 to 0.5)”: median about -0.016, highest 2% from about 0.32 on). This is one part of the list.
Biological target: T1, Stp1 (UniProt B3LFK1)
T1 sequence: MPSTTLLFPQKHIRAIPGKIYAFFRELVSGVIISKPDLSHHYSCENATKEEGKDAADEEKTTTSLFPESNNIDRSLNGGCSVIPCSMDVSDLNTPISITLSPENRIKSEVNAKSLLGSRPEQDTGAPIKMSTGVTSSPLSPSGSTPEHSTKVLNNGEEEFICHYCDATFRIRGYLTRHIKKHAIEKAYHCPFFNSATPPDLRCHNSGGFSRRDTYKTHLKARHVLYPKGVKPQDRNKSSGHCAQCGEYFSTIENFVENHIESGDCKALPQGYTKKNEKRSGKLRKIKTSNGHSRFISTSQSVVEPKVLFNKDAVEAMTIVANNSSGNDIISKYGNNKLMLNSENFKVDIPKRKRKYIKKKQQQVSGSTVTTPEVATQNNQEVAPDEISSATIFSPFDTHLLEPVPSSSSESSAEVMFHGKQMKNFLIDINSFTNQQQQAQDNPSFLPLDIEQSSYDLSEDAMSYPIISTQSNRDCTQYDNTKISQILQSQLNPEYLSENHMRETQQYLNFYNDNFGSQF
Assay: PBM E-score (8-mer binding enrichment) (E-score (-0.5 to 0.5)); higher = stronger / more preferred TF binding; most listed sequences are background and not binding sites
Settings: protein concentration: 200 nM; construct: GST-full length
Procedure, shortened: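 The E-score, a modified Wilcoxon-Mann-Whitney statistic, was computed by the Universal PBM Analysis Suite for every ungapped eight-base word pooled with its reverse complement. Scans behind it were normalised with masliner after bound GST-tagged yeast transcription factors were detected with fluorescent anti-GST. The proteins, at about 100-200 nM, had been applied to universal all-10-mer Agilent arrays made double-stranded by primer extension.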

Row | Sequence | PBM E-score
1 | AGGGATTA | -0.0874
2 | CGAAGAAG | 0.0283
3 | GAACGGGA | -0.0828
4 | ACCCAAGC | -0.183
5 | AATCCGTC | 0.0578
6 | AGGATACA | -0.0552
7 | GTGGCGGA | -0.0941
8 | CCTTGGAA | -0.0333
9 | GACAAGGA | 0.0206
10 | CTAGTGCC | 0.301
11 | AAACTCTT | -0.0607
12 | CGAAGATC | -0.0883
13 | CGTCCATC | -0.0982
14 | AGTGGTAA | 0.00366
15 | ACCTGTCG | -0.18
16 | CGTCGAAG | 0.0223
17 | GGCGTAAA | 0.26
18 | ATTGAGAA | 0.108
19 | ACCGTCGA | -0.187
20 | ACTAGGTA | -0.0597
21 | CCGACATA | 0.0721
22 | AAAAGGCT | 0.0632
23 | TAACCAAA | 0.0592
24 | TGGGCCCA | -0.142
25 | CTAAATAC | 0.152

Row | Sequence | PBM E-score
26 | CTTGATGA | 0.1
27 | TGACTAAA | 0.00189
28 | CTCAGGAC | -0.052
29 | ACTTCTAT | -0.0835
30 | CCTCCAGG | -0.298
31 | AACTACAT | -0.0896
32 | ATGCACGA | -0.0978
33 | CACAAACC | -0.0675
34 | ACGAACAG | 0.0187
35 | ATAAACAC | 0.0181
36 | GCCAAAAA | 0.114
37 | TGGGACAA | -0.23
38 | CGCCGATC | 0.285
39 | GACCGCAA | -0.101
40 | GCGGTTCA | -0.0576
41 | GCAACCTA | 0.081
42 | CCAGCACG | -0.0583
43 | CCCCCAAG | -0.211
44 | AGCCGAAC | -0.0533
45 | ACATTCCT | -0.207
46 | CATCTCTA | 0.0101
47 | AAGAACCG | 0.0917
48 | AAGACATT | -0.247
49 | GATCGGTA | 0.0323
50 | GCATGAAA | 0.105

Row | Sequence | PBM E-score
51 | CTGGTATC | -0.231
52 | CGCCCTGA | 0.0616
53 | ACGATCTG | -0.175
54 | AGCAGGGC | 0.156
55 | GCACCGCC | 0.0961
56 | AGCATCAC | -0.0605
57 | ATAATTAA | 0.149
58 | ACAAGTGT | 0.0368
59 | GAGCTCCA | -0.108
60 | ACATGGAG | -0.14
61 | CAACCTCC | -0.179
62 | ATGCCTAG | -0.00683
63 | TAACGCCA | 0.133
64 | TGATTACA | 0.177
65 | AGCTACTG | -0.229
66 | CAGTGTGA | 0.0291
67 | CGATGTGC | -0.0706
68 | CGACCTGC | -0.135
69 | GTCAACGA | -0.144
70 | AAGATGAA | 0.0075
71 | ACCCCTAT | -0.167
72 | AGTATCCA | -0.0503
73 | ATCAAGAA | 0.0777
74 | CACCCTGA | -0.185
75 | GACAGGAA | -0.0209

Row | Sequence | PBM E-score
76 | ACCATTCT | -0.0969
77 | TGATACAA | 0.113
78 | GTGCGTTA | 0.0947
79 | GATGGCCA | -0.0578
80 | ACTCCCAC | -0.0658
81 | CCCGACTC | -0.263
82 | AGTGGAAG | -0.0659
83 | ATGAACTG | 0.184
84 | GATTGTTA | 0.0355
85 | CCAGTAGC | 0.111
86 | CCTCAGCG | -0.0368
87 | AACGAGCT | -0.14
88 | AAACCTTC | -0.334
89 | ACGTAGAG | -0.131
90 | CTGTATGA | 0.101
91 | CACCCTCC | -0.183
92 | TAACTACA | 0.096
93 | CAAAACAC | 0.186
94 | CTGCGCAA | 0.185
95 | CGATCCGA | -0.0648
96 | AAACTCCA | 0.0303
97 | ATACAATC | 0.0964
98 | ACTCCTCA | -0.135
99 | AGGTCGTA | -0.0763
100 | AAAACCGC | -0.044

Row | Sequence | PBM E-score
101 | AGTACAGC | -0.059
102 | AGTGCAGA | -0.0955
103 | AACAAGTT | 0.133
104 | AACGCATG | -0.0148
105 | ATACATCG | 0.0672
106 | ATCCATTA | 0.0118
107 | AGATTTGC | 0.182
108 | CGCATCCG | 0.114
109 | CGCCCGCC | 0.108
110 | ACGGGGCG | 0.366
111 | CACGACGC | -0.0621
112 | CATGGCGC | 0.261
113 | ACGACTAG | -0.0901
114 | CGCCTATC | 0.183
115 | GCTCTTGA | -0.112
116 | CATTGGTA | 0.0352
117 | ATGTCCTC | -0.113
118 | ACCATGCG | 0.0344
119 | GGGTCGCA | -0.105
120 | ATCGCCAA | -0.0739
121 | TCTATCAA | -0.138
122 | GCTATGCC | 0.0204
123 | CCCTGCTA | -0.104
124 | AATAAAGT | 0.0842
125 | AGAGAATG | 0.00764

Row | Sequence | PBM E-score
126 | CTCACACC | -0.176
127 | ACTACCAG | -0.116
128 | AGTCATGG | -0.225
129 | CGTGTGGC | 0.353
130 | CCAAGCCG | 0.0253
131 | ACCAGCAC | -0.231
132 | AGCCCGAG | -0.116
133 | AGAGCTCT | -0.464
134 | CGGCCAGC | -0.206
135 | GGCGATGA | 0.119
136 | CTTAACTC | 0.126
137 | AGTCGACA | -0.0207
138 | TATGGCCA | -0.13
139 | AATTGTCG | 0.088
140 | CCTCGAAA | 0.0836
141 | AAGGAGTA | -0.223
142 | ATCGTCTA | -0.0813
143 | CGACGTGC | 0.116
144 | CGAACTTA | -0.0262
145 | CCCCAGAA | -0.237
146 | CACCCACC | -0.192
147 | TAAGCGCA | -0.185
148 | ACCAATGG | -0.0962
149 | AAGGTATA | -0.155
150 | ATCCGCGA | 0.112

Row | Sequence | PBM E-score
151 | GGTTCACA | 0.00343
152 | GAGTGCCC | -0.0325
153 | CAGGCGTA | 0.0281
154 | ACTTCCCT | -0.131
155 | TAAGTTGA | 0.105
156 | ACAGTCAC | -0.292
157 | GGCATACA | 0.0925
158 | CCCAGAGC | -0.277
159 | ACTACAAG | 0.0276
160 | ACTTCGCG | 0.00995
161 | GATGGACC | -0.174
162 | CGACGCAC | 0.0845
163 | GTTCTCAA | 0.2
164 | AGCCTATG | -0.0976
165 | ACTTGGCA | -0.072
166 | GGACTTCA | -0.253
167 | CGTAGCAG | -0.0847
168 | TAAGCCTA | 0.00057
169 | AACTATAA | 0.111
170 | CTTCTAAC | -0.154
171 | CAGCTCCG | 0.0444
172 | CTCTAACC | -0.172
